No constants are given. Whether binding was seen depends on the method and setting. In cells and extracts the contact can be indirect. Some entries that bind do so weakly or less than the wild type.
T1: bZIP16 (Arabidopsis thaliana) (UniProt Q501B2)
T1 sequence: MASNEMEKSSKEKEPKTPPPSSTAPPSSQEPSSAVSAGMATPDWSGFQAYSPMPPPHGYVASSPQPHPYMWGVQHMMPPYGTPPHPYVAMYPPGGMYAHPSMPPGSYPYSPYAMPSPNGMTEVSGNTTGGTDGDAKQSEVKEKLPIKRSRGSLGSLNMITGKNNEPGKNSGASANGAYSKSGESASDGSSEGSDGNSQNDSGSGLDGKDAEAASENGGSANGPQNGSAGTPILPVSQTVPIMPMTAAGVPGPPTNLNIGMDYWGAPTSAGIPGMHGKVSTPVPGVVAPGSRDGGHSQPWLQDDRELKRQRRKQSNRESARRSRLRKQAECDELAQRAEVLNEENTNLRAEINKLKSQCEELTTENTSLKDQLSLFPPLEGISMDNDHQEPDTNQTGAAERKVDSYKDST

T2: GBF1 (Arabidopsis thaliana) (UniProt P42774)
T2 sequence: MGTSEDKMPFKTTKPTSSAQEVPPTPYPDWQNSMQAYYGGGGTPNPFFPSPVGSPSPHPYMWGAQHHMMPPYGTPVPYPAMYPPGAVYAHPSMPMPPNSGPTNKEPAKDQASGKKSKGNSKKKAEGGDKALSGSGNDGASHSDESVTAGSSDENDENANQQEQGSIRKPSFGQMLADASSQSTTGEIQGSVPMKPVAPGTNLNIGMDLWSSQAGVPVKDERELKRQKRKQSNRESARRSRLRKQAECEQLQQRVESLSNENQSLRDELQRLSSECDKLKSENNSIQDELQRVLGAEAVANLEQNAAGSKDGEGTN

T3: bZIP68 (Arabidopsis thaliana) (UniProt Q84LG2)
T3 sequence: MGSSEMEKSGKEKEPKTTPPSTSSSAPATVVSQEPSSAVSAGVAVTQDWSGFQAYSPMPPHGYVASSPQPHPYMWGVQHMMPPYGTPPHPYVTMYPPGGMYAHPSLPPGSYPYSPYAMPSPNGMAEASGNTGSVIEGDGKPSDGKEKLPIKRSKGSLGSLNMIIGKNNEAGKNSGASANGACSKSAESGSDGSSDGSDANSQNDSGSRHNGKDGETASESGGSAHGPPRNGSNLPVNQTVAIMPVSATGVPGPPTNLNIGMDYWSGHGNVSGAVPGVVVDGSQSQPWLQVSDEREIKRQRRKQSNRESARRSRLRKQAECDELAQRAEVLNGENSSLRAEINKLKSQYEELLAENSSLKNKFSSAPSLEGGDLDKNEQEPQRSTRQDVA

T4: GBF3 (Arabidopsis thaliana) (UniProt P42776)
T4 sequence: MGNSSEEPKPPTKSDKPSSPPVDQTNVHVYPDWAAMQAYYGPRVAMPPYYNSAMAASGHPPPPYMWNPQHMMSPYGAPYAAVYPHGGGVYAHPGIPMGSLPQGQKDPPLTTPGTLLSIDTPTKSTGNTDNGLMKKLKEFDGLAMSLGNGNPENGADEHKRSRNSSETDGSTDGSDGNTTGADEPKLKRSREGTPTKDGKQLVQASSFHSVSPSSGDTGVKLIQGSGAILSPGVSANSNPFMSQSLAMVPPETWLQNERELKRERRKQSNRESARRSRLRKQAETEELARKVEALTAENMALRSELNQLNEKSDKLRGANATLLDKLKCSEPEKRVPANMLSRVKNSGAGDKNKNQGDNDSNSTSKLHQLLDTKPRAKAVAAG

T5: GBF2 (Arabidopsis thaliana) (UniProt P42775)
T5 sequence: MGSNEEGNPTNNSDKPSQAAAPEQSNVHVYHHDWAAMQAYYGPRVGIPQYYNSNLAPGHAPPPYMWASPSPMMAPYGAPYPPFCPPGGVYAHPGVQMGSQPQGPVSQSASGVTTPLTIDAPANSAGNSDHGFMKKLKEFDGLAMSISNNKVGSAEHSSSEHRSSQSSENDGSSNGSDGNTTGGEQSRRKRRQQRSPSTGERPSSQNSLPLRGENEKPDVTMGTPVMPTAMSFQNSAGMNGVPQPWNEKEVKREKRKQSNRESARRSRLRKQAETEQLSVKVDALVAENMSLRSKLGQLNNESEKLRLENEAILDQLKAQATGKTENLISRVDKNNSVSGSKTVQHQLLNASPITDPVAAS


Tests used:
Experiment in all cases: split reporter; split YFP BiFC in transiently transformed Arabidopsis protoplasts, 2 ug of each plasmid, incubated overnight; read by flow cytometry (at least three biological replicates, minimum 30,000 cells); each pair tested in both fusion conformations (SPN and SPC); positive where the normalized BiFC score lies above the threshold 0.01 in both conformations
[1] = molecular target: T1, bZIP16 (Arabidopsis thaliana)
[2] = molecular target: T2, GBF1 (Arabidopsis thaliana)
[3] = molecular target: T3, bZIP68 (Arabidopsis thaliana)
[4] = molecular target: T4, GBF3 (Arabidopsis thaliana)
[5] = molecular target: T5, GBF2 (Arabidopsis thaliana)

binding [1]	binding [2]	binding [3]	binding [4]	binding [5]	Binder
binds	binds	–	–	–	bZIP63 (protein, UniProt B9DGI8 1-314) MEKVFSDEEISGNHHWSVNGMTSLNRSASEWAFNRFIQESSAAADDGESTTACGVSVSSPPNVPVDSEEYRAFLKSKLNLACAAVAMKRGTFIKPQDTSGRSDNGGANESEQASLASSKATPMMSSAITSGSELSGDEEEADGETNMNPTNVKRVKRMLSNRESARRSRRRKQAHLSELETQVSQLRVENSKLMKGLTDVTQTFNDASVENRVLKANIETLRAKVKMAEETVKRLTGFNPMFHNMPQIVSTVSLPSETSNSPDTTSSQVTTPEIISSGNKGKALIGCKMNRTASMRRVESLEHLQKRIRSVGDQ
binds	–	binds	–	–	bZIP16 (protein, UniProt Q501B2 1-409) MASNEMEKSSKEKEPKTPPPSSTAPPSSQEPSSAVSAGMATPDWSGFQAYSPMPPPHGYVASSPQPHPYMWGVQHMMPPYGTPPHPYVAMYPPGGMYAHPSMPPGSYPYSPYAMPSPNGMTEVSGNTTGGTDGDAKQSEVKEKLPIKRSRGSLGSLNMITGKNNEPGKNSGASANGAYSKSGESASDGSSEGSDGNSQNDSGSGLDGKDAEAASENGGSANGPQNGSAGTPILPVSQTVPIMPMTAAGVPGPPTNLNIGMDYWGAPTSAGIPGMHGKVSTPVPGVVAPGSRDGGHSQPWLQDDRELKRQRRKQSNRESARRSRLRKQAECDELAQRAEVLNEENTNLRAEINKLKSQCEELTTENTSLKDQLSLFPPLEGISMDNDHQEPDTNQTGAAERKVDSYKDST
binds	–	binds	binds	binds	GBF2 (protein, UniProt P42775 1-360) MGSNEEGNPTNNSDKPSQAAAPEQSNVHVYHHDWAAMQAYYGPRVGIPQYYNSNLAPGHAPPPYMWASPSPMMAPYGAPYPPFCPPGGVYAHPGVQMGSQPQGPVSQSASGVTTPLTIDAPANSAGNSDHGFMKKLKEFDGLAMSISNNKVGSAEHSSSEHRSSQSSENDGSSNGSDGNTTGGEQSRRKRRQQRSPSTGERPSSQNSLPLRGENEKPDVTMGTPVMPTAMSFQNSAGMNGVPQPWNEKEVKREKRKQSNRESARRSRLRKQAETEQLSVKVDALVAENMSLRSKLGQLNNESEKLRLENEAILDQLKAQATGKTENLISRVDKNNSVSGSKTVQHQLLNASPITDPVAAS
no binding	no binding	no binding	no binding	no binding	bZIP11 (protein, UniProt O65683 1-159) MESSSSGTTSSTIQTSSGSEESLMEQRKRKRMLSNRESARRSRMKKQKLLDDLTAQVNHLKKENTEIVTSVSITTQHYLTVEAENSVLRAQLDELNHRLQSLNDIIEFLDSSNNNNNNNMGMCSNPLVGLECDDFFVNQMNMSYIMNQPLMASSDALMY
–	–	binds	–	–	bZIP68 (protein, UniProt Q84LG2 1-389) MGSSEMEKSGKEKEPKTTPPSTSSSAPATVVSQEPSSAVSAGVAVTQDWSGFQAYSPMPPHGYVASSPQPHPYMWGVQHMMPPYGTPPHPYVTMYPPGGMYAHPSLPPGSYPYSPYAMPSPNGMAEASGNTGSVIEGDGKPSDGKEKLPIKRSKGSLGSLNMIIGKNNEAGKNSGASANGACSKSAESGSDGSSDGSDANSQNDSGSRHNGKDGETASESGGSAHGPPRNGSNLPVNQTVAIMPVSATGVPGPPTNLNIGMDYWSGHGNVSGAVPGVVVDGSQSQPWLQVSDEREIKRQRRKQSNRESARRSRLRKQAECDELAQRAEVLNGENSSLRAEINKLKSQYEELLAENSSLKNKFSSAPSLEGGDLDKNEQEPQRSTRQDVA
no binding	no binding	no binding	binds	no binding	bZIP2 (protein, UniProt Q9SI15 1-171) MASSSSTYRSSSSSDGGNNNPSDSVVTVDERKRKRMLSNRESARRSRMRKQKHVDDLTAQINQLSNDNRQILNSLTVTSQLYMKIQAENSVLTAQMEELSTRLQSLNEIVDLVQSNGAGFGVDQIDGCGFDDRTVGIDGYYDDMNMMSNVNHWGGSVYTNQPIMANDINMY
binds	–	binds	binds	–	GBF3 (protein, UniProt P42776 1-382) MGNSSEEPKPPTKSDKPSSPPVDQTNVHVYPDWAAMQAYYGPRVAMPPYYNSAMAASGHPPPPYMWNPQHMMSPYGAPYAAVYPHGGGVYAHPGIPMGSLPQGQKDPPLTTPGTLLSIDTPTKSTGNTDNGLMKKLKEFDGLAMSLGNGNPENGADEHKRSRNSSETDGSTDGSDGNTTGADEPKLKRSREGTPTKDGKQLVQASSFHSVSPSSGDTGVKLIQGSGAILSPGVSANSNPFMSQSLAMVPPETWLQNERELKRERRKQSNRESARRSRLRKQAETEELARKVEALTAENMALRSELNQLNEKSDKLRGANATLLDKLKCSEPEKRVPANMLSRVKNSGAGDKNKNQGDNDSNSTSKLHQLLDTKPRAKAVAAG
no binding	no binding	no binding	no binding	no binding	bZIP1 (protein, UniProt Q9FGX2 1-145) MANAEKTSSGSDIDEKKRKRKLSNRESARRSRLKKQKLMEDTIHEISSLERRIKENSERCRAVKQRLDSVETENAGLRSEKIWLSSYVSDLENMIATTSLTLTQSGGGDCVDDQNANAGIAVGDCRRTPWKLSCGSLQPMASFKT
no binding	no binding	no binding	no binding	no binding	bZIP53 (protein, UniProt Q9LZP8 1-146) MGSLQMQTSPESDNDPRYATVTDERKRKRMISNRESARRSRMRKQKQLGDLINEVTLLKNDNAKITEQVDEASKKYIEMESKNNVLRAQASELTDRLRSLNSVLEMVEEISGQALDIPEIPESMQNPWQMPCPMQPIRASADMFDC

Source: PMC4599898
